In all, about 81,000 sequences were measured (“one-hybrid fitness for binding NBS DNA”: median about -0.1, highest 2% from about 0.36 on). The list shows a part of the results.
B1: Caulobacter ParB omega fusion; a variant is named by its letters at X, in order, B8GW30 (parent)
chain: MESVVVGEPGMSEGRRGLGRGLSALLGEVDAAPAQAPGEQLGGSREAPIEILQRNPDQPRRTFREEDLEDLSNSIREKGVLQPILVRPSPDTAGEYQIVAGERAWRAAQRAGLKTVPIMVRELDDLAVLEIGIIENVQRADLNVLEEALSYKVLMEKFERTQENIAQTIGKSXSHVANXMRLLXLPDEVQSYLVSGELTAXHARAIAAAADPVALAKQIIEGGLSVRETEALARKAPNLSAGKSKGGRPPRVKDTDTQALESDLSSVLGLDVSIDHRGSTGTLTITYATLEQLDDLCNRLTRGI

Variants of: B1
Assay: one-hybrid fitness for binding NBS DNA (the Noc-binding site; scaled: cognate 1, non-cognate 0); higher = stronger binding
Conditions: with NBS DNA site
How it was run: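 Fitness here means the log change in variant-to-wild-type read ratio between plasmids sequenced before and after selection. That scale was set so cognate equals 1 and non-cognate equals 0. The selection was a bacterial one-hybrid screen of Caulobacter ParB libraries, four specificity codons randomised, in E. coli USO carrying a HIS3 reporter with the site 19 bp from the promoter, grown 48 hours at 37°C on M9-minus-histidine with 0.1 mM IPTG and 5 mM 3-AT.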

one-hybrid fitness for binding NBS DNA, 0.474:
RQSR

one-hybrid fitness for binding NBS DNA, ≤ 0.2:
LATI
IQMR
QSSP
EAPA
MDCF
AAKH
GHAR
WTDR
VLGS
RYTV
TVWR
QLFW
VDTI
PMCT
MPNG
QYML
KKQM
WIKT
HELV
KSVW
RSDN
TNLR
AIQT
QCFL
NRQW
MYVI
PVWF
GFGG
MRHK
PANM
FAFI
WLYG
RCSE
NRRI
CMQS
PMIP
DTGT
ASHS
VWAD
SHHE
LDWR
GCPM
KTFF
QYHY
RNIW
GTFW
YPNC
FTYI
QIPD
EKAN
KMVG
GQRS
DGVT
IGDT
QHCA
TNSF
PIND
QFMV
DSGW
TPCM
RTPQ
PVCS
EGCT
HTFF
QAPV
HGSC
EPRC
TSYE
ECTG
IYTR
RVLV
RKPY
PRGM
ASEC
EETR
YTGK
SVDC
GTGA
VWDV
RVKM
ADCC
RMFA
NNMC
LIRS
SKCG
VACG
TKVQ
YRFA
LYFT
VHHE
HGAC
WSWS
FLPK
AWMV
HCAR
TEPW
RDQL
LMPK
HGRL
LGTF
CTPT
HAWR
HFFG
SAKL
PVQV
TVLV
MFVW
NVNC
ETIG
AMSE
TPYV
NPLC
MACL
HPRT
IYGS
NKSV
QRVW
SMTL
FIKS
DIMG
RIWM
ARRN
AERY
QTCC
AFAE
PYSW
AFQF
CTPK
VVHM
AAIF
TYKM
YASG
DPDV
HWKR
APSW
KQPV
LSHK
NGAE
LPHL
YAEV
MAIS
HETS
NAGT
VVMS
NTNG
SEAG
TNLA
KMVQ
TAHI
VIGY
TKKY
PSDN
SWNR
KNGV
QPEG
AKYM
AVHI
GKRS
YQSC
TVTE
RVDV
ALLF
WNYS
IPMC
LSCA
WSMT
RMDE
PGVY
ERPE
NDKT
LLFL
NKCS
RQHY
PRGD
VMNG
LLLM
SVEA
RLYD
YNGC
FRCC
HWFT
LPCR
GTWG
LNSL
NTMP
AYTH
AVSW
PVAL
SIAV
SGWS
NQGG
HGMV
MDGR

one-hybrid fitness for binding NBS DNA, 0.202:
NHKR
